{
  "source": "paper PMC12136788",
  "binders": {"B1": {"name": "chr17:56739783:56739784:+_ENSMUSG00000071054_ENSMUST00000095224|mus_hu|FALSE|FALSE (ssRNA)", "RNA": "GGGAGUUCUACAGUCCGACGAUCAUAUUUGCUGAAAAGAUUCUUCAAAUCUGUAGCUCUGGUUGUAGAAGAGAGUCCACUAACCCAGAAAUUUCUACCACAACUGCUGCGACCCUUUUCCUCUUUGGAAAGCCUUUUUGUAUCCAACAGAGGAUUGAGCAUCA"}, "B2": {"name": "3496528_3496648_1171_3pUTR_ENSMUSG00000024908_ENSMUST00000113997|mouse|control|control (ssRNA)", "RNA": "GGGAGUUCUACAGUCCGACGAUCGGCUCGAGUAGGAGUUCAUGGAAAGAUCCAAGUCUUCCUCGGAUGGCUUCAAGAACACUCUUGUUAACUGAACAAGCUGAAUGACUCAUGCCCGGGGGGCAGAUUUCUAUAUGGCCUUCACAACAGAGGAUUGAGCAUCA"}, "B3": {"name": "chr5:171327072:171327073:-_ENSG00000072803_ENST00000265094|hu_mus|motif|central (ssRNA)", "RNA": "GGGAGUUCUACAGUCCGACGAUCCACCAGCUCUGCUGCACACAGAGACCUGGCAUCCAGGUAGGAGAGAAUGUUUUCUGCGGUGUGAUCUAAGCCUUGCUCUGGUAAAGCAGUGAUAAAGUCCCGCUGCAACAUGGGCUUCAGCAACAGAGGAUUGAGCAUCA"}, "B4": {"name": "91048680_91051365_300_3pUTR_ENSMUSG00000030091_ENSMUST00000032179|mouse|control|control (ssRNA)", "RNA": "GGGAGUUCUACAGUCCGACGAUCCUGCCCUGUAGUGAUGUCUUCUGCAAAGAUGAUGCUGGUCAGGCGGGCUGGCUGGGUCAAGCGGGCCUGCACCACUGCCUUCUGGGAGCACUGCUGUUCACUGGAGCCCAACGGCUCUAUCAACAGAGGAUUGAGCAUCA"}, "B5": {"name": "chr5:144009550:144009551:+_ENSMUSG00000029587_ENSMUST00000032591|mus_mus|FALSE|FALSE (ssRNA)", "RNA": "GGGAGUUCUACAGUCCGACGAUCCAUCCAAAUUUACAGACAAUAAAUCUCUCUAUUGACACAUCAAAAUAAAUGAUUUCCUAAAUUCCACUUCUGAAUUGCAUAACUCCUACAGAGUGUAAUGGGGCACCAGGCUGUCCUGUUCAACAGAGGAUUGAGCAUCA"}, "B6": {"name": "chr17:64801638:64801639:+_ENSG00000154229_ENST00000413366|hu_mus|hu_hu_hu_mus_False|58_68 (ssRNA)", "RNA": "GGGAGUUCUACAGUCCGACGAUCUAUAUAUAUAUAUACAUAUGUACACAUAUAUAGUAAAACCCUAAUCUAUCACGUAAACUAGCCAUUCAUUUUUAAAAUUACAUCUACAUUAAAAAAUUAAUAUAUCUGAUAGAGUGCCAGCAACAGAGGAUUGAGCAUCA"}, "B7": {"name": "chr11:75505782:75505783:+_ENSMUSG00000017776_ENSMUST00000017920|mus_mus|FALSE|FALSE (ssRNA)", "RNA": "GGGAGUUCUACAGUCCGACGAUCUGCCUCCUCCUGCCUGAGAAUCACUCCACUACCCUGCCUUGAUCUGGCCACUGGUUCUAUCAAUGUUGUAGUGUCCAAAUAGUGUAUUUUGUAGAAUUCCAGUAAAGCAGGCAAUGAAUCCAACAGAGGAUUGAGCAUCA"}, "B8": {"name": "8158408_8158897_535_CDS_ENSG00000178921_ENST00000314666|human|control|control (ssRNA)", "RNA": "GGGAGUUCUACAGUCCGACGAUCGAAGUGCUGCUCUGUCAUCCGGUCGUGCAGGGUAGCCAGAGCAAUGGCUUCCACCUCAGCUGACGGGGGGUGGGCAAACGAGAGCCGGUAGCGCCGGGUGGUCUCCACACGAUCCACAGGCAACAGAGGAUUGAGCAUCA"}, "B9": {"name": "chr4:41262718:41262719:+_ENSG00000154277_ENST00000284440|perfect_dup|FALSE|FALSE (ssRNA)", "RNA": "GGGAGUUCUACAGUCCGACGAUCUCCGAUUGUGCCACAGGAAUUCCCAAUGGUCUGCUUCAUGAAGUACACUUUAGGACUAACUUCUUGUCCCUUCAGCUCUUCAAUCUGCUUUUUCCUGAAGUUCUCAUGCUGGGCCGUGAGCAACAGAGGAUUGAGCAUCA"}, "B10": {"name": "chr5:138654669:138654670:+_ENSG00000015479_ENST00000502499|hu_mus|motif|central (ssRNA)", "RNA": "GGGAGUUCUACAGUCCGACGAUCUUUCUUUAUUCUCUUAUACUUCUGGGAUAAAUGAACUCUCACUGGCUUGCCAAACACGGAUGCUGGUGUAGUUGUAUAAUAAUCCACAGCAGCCUGAGCAUCUUCUGUGGUGGCCAUUUCCAACAGAGGAUUGAGCAUCA"}, "B11": {"name": "chr2:47387792:47387793:-_ENSG00000143933_ENST00000272298|hu_hu|hu_hu_hu_mus_True|18_28 (ssRNA)", "RNA": "GGGAGUUCUACAGUCCGACGAUCUAAGGACAAUGACAGUAAGAUAAGGGAAGAAAACAUGGAGGAAUGAAGUCCUAAUUACUAUACAUGCAUAUUUUUUGACAGUAAGGGAGAAACCUUUUACAGAGAUAAGUUACAAACAAACAACAGAGGAUUGAGCAUCA"}, "B12": {"name": "chr7:75956504:75956505:-_ENSG00000170027_ENST00000307630|hu_hu|FALSE|FALSE (ssRNA)", "RNA": "GGGAGUUCUACAGUCCGACGAUCAUAUAACUGCAUGUCACUAUAGCAACAUCCAAAACAGAUCAAUUUGUUACAAUCACUAUUUGGUAGAGCAAACUUUACCCCCAAAAGGAAAAAUUAAAUUAAAAAAAAAAAACCUUUAAACAACAGAGGAUUGAGCAUCA"}, "B13": {"name": "chrX:71549762:71549763:+_ENSMUSG00000019087_ENSMUST00000019231|mus_mus|mus_mus_mus_hu_False|18_28 (ssRNA)", "RNA": "GGGAGUUCUACAGUCCGACGAUCAAACCCGUGUACUUCUUAUUGUUAGCACAACAUCACCAGAAAACGAUAACGACAGCCAAGCAGGACAGACAGUUAAGUAGUACUUCCACACCUCGCAAAUUCAGGAGCCCUAUAACCUUACAACAGAGGAUUGAGCAUCA"}, "B14": {"name": "chr8:98253062:98253063:-_ENSMUSG00000036550_ENSMUST00000098473|mus_hu|FALSE|FALSE (ssRNA)", "RNA": "GGGAGUUCUACAGUCCGACGAUCGGUUUCCAACACAUGCUCAGGUGCAUUGAGUUCCAAGAGAAGCAUGAUAAAAAUUCGAUGGUAGGGAAGUUGCUGAAAUUCACUCUGACGAACAUCAUGAUCCUGAAGGAGAACUCCCACCAACAGAGGAUUGAGCAUCA"}, "B15": {"name": "42743316_42743436_1351_3pUTR_ENSG00000103994_ENST00000263805|human|control|control (ssRNA)", "RNA": "GGGAGUUCUACAGUCCGACGAUCACUGUAAAUCCAGAGUCUUCUGAGAAGGGUAAGGCGUCCAGCGACGAGGCUUUUCCCUUGCCGCACUGCCAUUCUUUCCACUAACUUUGGAAGUAGCAGUGUCUGCUUGUUUAGUGGUUUCAACAGAGGAUUGAGCAUCA"}, "B16": {"name": "98547405_98547747_5270_CDS_ENSG00000196367_ENST00000355540|human|control|control (ssRNA)", "RNA": "GGGAGUUCUACAGUCCGACGAUCAAAACGACCAGUAAAGGCUCGGAGCAGCUGGAACAGCAAUUCUAUAUCUCCGUAAUUCCUUUUGCAGUAGUUCAGCAGGCAGUAGGCCAGCAGCUUGGGCUCCUUCCAGUUGGUGGCUGCCAACAGAGGAUUGAGCAUCA"}, "B17": {"name": "chr19:56882518:56882519:-_ENSMUSG00000035173_ENSMUST00000118592|mus_hu|motif|central (ssRNA)", "RNA": "GGGAGUUCUACAGUCCGACGAUCCUGAGAAAGCUGCUUAAUUUUGUUAGUGUUUUUCUCAAGUUCCUUAUUUGCAUCUCGGAGUUUUUUCUCAAGUGUCUCUUUUUCCUUUCGAAGAUCUAAAGAUUCCUUCUCACCUCUUACCAACAGAGGAUUGAGCAUCA"}, "B18": {"name": "chr2:179515052:179515053:+_ENSMUSG00000000305_ENSMUST00000000314|mus_hu|mus_mus_mus_hu_False|88_108 (ssRNA)", "RNA": "GGGAGUUCUACAGUCCGACGAUCGCUUUCCCGCGCAGUCACCGUGAAGGCCACCUGCUCGGAGGGGACCUGCAGCUCCCGGGUGGCGAAGACUGUCCCAUCUGCCCCAACUUUGAAGUCCAUGCUGUUGGUCUCAUAUUGUGUCAACAGAGGAUUGAGCAUCA"}, "B19": {"name": "chr8:104447970:104447971:+_ENSG00000164934_ENST00000297579|hu_hu|hu_hu_hu_mus_False|78_108 (ssRNA)", "RNA": "GGGAGUUCUACAGUCCGACGAUCAUAUACCUCCCUGCUUCGGCUCUUGUCCACAGGAAAGAUUCGAAUAGACUUAUCAAAGCUGGCAGACACAAAUUCCUUCCCAGUGGGAGAGUAGUCCACAUCAAGUACUGCAGACACGUGCAACAGAGGAUUGAGCAUCA"}, "B20": {"name": "142756116_142757008_2225_CDS_ENSG00000163714_ENST00000493598|human|control|control (ssRNA)", "RNA": "GGGAGUUCUACAGUCCGACGAUCUUUUGAUGGGGCAACUUUAAAUAUAGGCUCAUUCUUUUUUGAGUCUUCAGUUGCAUCCAAAGGCACUCCAUCAAGAUCAUCAUCAAGACUUUUUAUAGGGACUCCAUCAAGAUCAUCGAUCAACAGAGGAUUGAGCAUCA"}, "B21": {"name": "chr10:76910771:76910772:+_ENSG00000156671_ENST00000542569|perfect_dup|motif|central (ssRNA)", "RNA": "GGGAGUUCUACAGUCCGACGAUCCAUGUCAGGCACACGCUCAUGAACAAUAACCAUAAUGAAAGACGUAAACCCAAAUACGGUAAAAACAUAUACACAACUCAGGAUGGUCUUCCAGUACUCUGGGUCCAGUCUUCGAGCAGACAACAGAGGAUUGAGCAUCA"}, "B22": {"name": "chr10:13251168:13251169:-_ENSMUSG00000019809_ENSMUST00000019945|mus_hu|motif|central (ssRNA)", "RNA": "GGGAGUUCUACAGUCCGACGAUCAGCCAUAUUGUCUAGAAGUCUACUAAAACCUCGGUUUAAACAGGUAUUCAAAACUGUACGGAAAUCUGGGCUUUCCAACAUGUCUCUAGUUUCAUUGAGAAGUUUAAUAGUGGUAAUGUCCAACAGAGGAUUGAGCAUCA"}},
  "note": "The list shows a part of the results.",
  "data": [
    {"target": "T1, UNK ZnF1-3 (human, UniProt Q9C0B0 31-174)", "T1 sequence": "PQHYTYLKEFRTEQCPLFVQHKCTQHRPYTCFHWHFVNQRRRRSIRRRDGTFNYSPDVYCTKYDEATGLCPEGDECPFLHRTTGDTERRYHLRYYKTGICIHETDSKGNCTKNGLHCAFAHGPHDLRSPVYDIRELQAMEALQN", "test": "nsRBNS (natural sequence RNA bind-n-seq); RBNS binding buffer (assumed for nsRBNS): 25 mM Tris pH 7.5, 150 mM KCl, 3 mM MgCl2, 0.01% Triton X-100, 500 ug/ml BSA, 20 U/ml SUPERase-In, 4 C; UNK is unkempt and MSI1 is Musashi-1; names of the RNAs are library labels; protein concentration not given here; high values mean tight binding", "units": {"binding signal": "enrichment R"}, "values": [
      {"binder": "B1", "binding signal": 0.76},
      {"binder": "B2", "binding signal": 1.1},
      {"binder": "B3", "binding signal": 0.913},
      {"binder": "B4", "binding signal": 0.87},
      {"binder": "B5", "binding signal": 1.22},
      {"binder": "B6", "binding signal": 1.22},
      {"binder": "B7", "binding signal": 1.04},
      {"binder": "B8", "binding signal": 0.568},
      {"binder": "B9", "binding signal": 0.857},
      {"binder": "B10", "binding signal": 1.1},
      {"binder": "B11", "binding signal": 1.88},
      {"binder": "B12", "binding signal": 1.78},
      {"binder": "B13", "binding signal": 1.49},
      {"binder": "B14", "binding signal": 1.72},
      {"binder": "B15", "binding signal": 0.547},
      {"binder": "B16", "binding signal": 1.2},
      {"binder": "B17", "binding signal": 0.421},
      {"binder": "B18", "binding signal": 0.77},
      {"binder": "B19", "binding signal": 1.04},
      {"binder": "B20", "binding signal": 0.794},
      {"binder": "B21", "binding signal": 1.05},
      {"binder": "B22", "binding signal": 1.29}
    ]}
  ]
}
